Assay [1] has as its system Herpes simplex type 2 HSV-2 strain(BW9787)TK-. Conditions: HSV-2 (BW9787) TK-, Vero.
The subject of assay [2] is Herpes simplex type 1 HSV-1 strain(BW10168)TK-. The note with it: HSV-1 (BW10168) TK-, Vero.
The test system of assay [3] is Herpes simplex type 2 HSV-2 strain(BW9787)TK-. Put plainly: microbe, parasite or virus in culture. The note with it: Human alphaherpesvirus 2, Vero, read-out: ID50 (minimum drug concentration that inhibited the CPE by 50%).
The test system of assay [4] is Herpes simplex type 1 HSV-1 strain(BW10168)TK-. The assay can be described thus: microbe, parasite or virus in culture. The note with it: Human alphaherpesvirus 1, Vero, read-out: ID50 (minimum drug concentration that inhibited the CPE by 50%).

Structures are written as SMILES. In brackets after ≈: the same amount, converted by molar mass.

On to `Nc1nc2c(ncn2C2CC(CO)C2CO)c(=O)[nH]1` (stereo not drawn) [Example 1I, 9-(2',3'-Bis(hydroxymethyl)cyclobutyl)guanine], for which the “TI (Therapeutic Index, MTC/ID50)” value in assay [1] turned out to be 127; in assay [2] it was 24.6. Further, the “VR (Virus Rating)” value was determined as 5.4 in assay [1] and 3.3 in assay [2]. Further, the EC50 in assay [3] was 0.79 mg/L (≈ 2.98 µM); in assay [4] it was 4.06 mg/L (≈ 15.3 µM).

These data come from patent US5153352A, “Process for preparation of intermediates of carbocyclic nucleoside analogs” (priority 1990, dated 1992).
